# Experimental data: the supplement of paper PMC8728848
# This is one part of the list.
# Tests used:
# Test in all cases: glycan array binding signal (z-score within array); higher = stronger binding
# Conditions in all cases: glycan notation: IUPAC condensed, linker removed
# Gal(a1-6)Glc = molecular target: Gal(a1-6)Glc
# In short: (§1)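 Columns mapping to the same glycan were averaged after glycan names were converted to IUPAC-condensed notation. The data come from 3228 arrays in the Consortium for Functional Glycomics database, limited to those with an available protein sequence. Binding is reported as a within-array Z-score averaged across arrays of one protein sequence and across linkers.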
# Gal(b1-2)Gal = molecular target: Gal(b1-2)Gal
# In short: as §1
# Gal(b1-3)Gal = molecular target: Gal(b1-3)Gal
# In short: as §1
# Gal(b1-3)Gal(b1-4)GlcNAc = molecular target: Gal(b1-3)Gal(b1-4)GlcNAc
# In short: as §1
# Gal(b1-3)GalNAc = molecular target: Gal(b1-3)GalNAc
# In short: as §1
# [1] = molecular target: Gal(b1-3)GalNAc(a1-3)[Fuc(a1-2)]Gal(b1-4)Glc
# In short: as §1
# [2] = molecular target: Gal(b1-3)GalNAc(a1-3)[Fuc(a1-2)]Gal(b1-4)GlcNAc
# In short: as §1
# Gal(b1-3)GalNAc(b1-3)Gal = molecular target: Gal(b1-3)GalNAc(b1-3)Gal
# In short: as §1
# [3] = molecular target: Gal(b1-3)GalNAc(b1-3)Gal(a1-4)Gal(b1-4)Glc
# In short: as §1
# [4] = molecular target: Gal(b1-3)GalNAc(b1-4)Gal(b1-4)Glc
# In short: as §1
# [5] = molecular target: Gal(b1-3)GalNAc(b1-4)[Neu5Ac(a2-3)]Gal(b1-4)Glc
# In short: as §1
# Gal(b1-3)GlcNAc = molecular target: Gal(b1-3)GlcNAc
# In short: as §1
# [6] = molecular target: Gal(b1-3)GlcNAc(a1-3)Gal(b1-4)GlcNAc
# In short: as §1
# [7] = molecular target: Gal(b1-3)GlcNAc(a1-6)Gal(b1-4)GlcNAc
# In short: as §1
# Gal(b1-3)GlcNAc(b1-2)Man = molecular target: Gal(b1-3)GlcNAc(b1-2)Man
# In short: as §1
# [8] = molecular target: Gal(b1-3)GlcNAc(b1-2)Man(a1-3)[Gal(b1-3)GlcNAc(b1-2)Man(a1-6)]Man(b1-4)GlcNAc(b1-4)GlcNAc
# In short: as §1
# [9] = molecular target: Gal(b1-3)GlcNAc(b1-2)Man(a1-3)[Gal(b1-3)GlcNAc(b1-2)Man(a1-6)]Man(b1-4)GlcNAc(b1-4)[Fuc(a1-6)]GlcNAc
# In short: as §1
# [10] = molecular target: Gal(b1-3)GlcNAc(b1-2)Man(a1-3)[GlcNAc(b1-4)][Gal(b1-3)GlcNAc(b1-2)Man(a1-6)]Man(b1-4)GlcNAc(b1-4)GlcNAc
# In short: as §1
# [11] = molecular target: Gal(b1-3)GlcNAc(b1-2)[Gal(b1-3)GlcNAc(b1-6)]Man(a1-6)[Gal(b1-3)GlcNAc(b1-2)Man(a1-3)]Man(b1-4)GlcNAc(b1-4)GlcNAc
# In short: as §1
# [12] = molecular target: Gal(b1-3)GlcNAc(b1-3)Gal(b1-3)GlcNAc
# In short: as §1
# [13] = molecular target: Gal(b1-3)GlcNAc(b1-3)Gal(b1-4)Glc
# In short: as §1
# [14] = molecular target: Gal(b1-3)GlcNAc(b1-3)Gal(b1-4)GlcNAc
# In short: as §1
# [15] = molecular target: Gal(b1-3)GlcNAc(b1-3)Gal(b1-4)GlcNAc(b1-2)Man(a1-3)[Gal(b1-3)GlcNAc(b1-3)Gal(b1-4)GlcNAc(b1-2)Man(a1-6)]Man(b1-4)GlcNAc(b1-4)GlcNAc
# In short: as §1
# [16] = molecular target: Gal(b1-3)GlcNAc(b1-3)Gal(b1-4)GlcNAc(b1-2)[Gal(b1-3)GlcNAc(b1-3)Gal(b1-4)GlcNAc(b1-6)]Man(a1-6)[Gal(b1-3)GlcNAc(b1-3)Gal(b1-4)GlcNAc(b1-2)Man(a1-3)]Man(b1-4)GlcNAc(b1-4)[Fuc(a1-6)]GlcNAc
# In short: as §1
# [17] = molecular target: Gal(b1-3)GlcNAc(b1-3)Gal(b1-4)GlcNAc(b1-3)Gal(b1-4)GlcNAc(b1-2)[Gal(b1-3)GlcNAc(b1-3)Gal(b1-4)GlcNAc(b1-3)Gal(b1-4)GlcNAc(b1-6)]Man(a1-6)[Gal(b1-3)GlcNAc(b1-3)Gal(b1-4)GlcNAc(b1-3)Gal(b1-4)GlcNAc(b1-2)Man(a1-3)]Man(b1-4)GlcNAc(b1-4)[Fuc(a1-6)]GlcNAc
# In short: as §1
# [18] = molecular target: Gal(b1-3)GlcNAc(b1-3)Gal(b1-4)GlcNAc(b1-6)[Gal(b1-3)GlcNAc(b1-3)]Gal(b1-4)Glc
# In short: as §1
# [19] = molecular target: Gal(b1-3)GlcNAc(b1-3)Gal(b1-4)[Fuc(a1-3)]GlcNAc
# In short: as §1
# [20] = molecular target: Gal(b1-3)GlcNAc(b1-3)Gal(b1-4)[Fuc(a1-3)]GlcNAc(b1-6)[Gal(b1-3)GlcNAc(b1-3)]Gal(b1-4)Glc
# In short: as §1
# [21] = molecular target: Gal(b1-3)GlcNAc(b1-3)GalNAc
# In short: as §1
# [22] = molecular target: Gal(b1-3)GlcNAc(b1-6)Gal(b1-4)GlcNAc
# In short: as §1
# [23] = molecular target: Gal(b1-3)GlcNAc(b1-6)GalNAc
# In short: as §1
# [24] = molecular target: Gal(b1-3)GlcNAc(b1-6)[Gal(b1-3)]GalNAc
# In short: as §1
# Gal(b1-3)GlcNAc6S = molecular target: Gal(b1-3)GlcNAc6S
# In short: as §1
# [25] = molecular target: Gal(b1-3)[Fuc(a1-4)]GlcNAc
# In short: as §1
# [26] = molecular target: Gal(b1-3)[Fuc(a1-4)]GlcNAc(b1-2)Man
# In short: as §1
# [27] = molecular target: Gal(b1-3)[Fuc(a1-4)]GlcNAc(b1-2)Man(a1-3)[Gal(b1-3)[Fuc(a1-4)]GlcNAc(b1-2)Man(a1-6)]Man(b1-4)GlcNAc(b1-4)[Fuc(a1-6)]GlcNAc
# In short: as §1
# [28] = molecular target: Gal(b1-3)[Fuc(a1-4)]GlcNAc(b1-3)Gal(b1-3)[Fuc(a1-4)]GlcNAc
# In short: as §1
binder,measurement,setting,value
"Gal 8 (Mus musculus), Q9JL15 (protein) MGGSHHHHHHGMASMLSLNNLQNIIYNPIIPYVGTITEQLKPGSLIVIRGHVPKDSERFQVDFQLGNSLKPRADVAFHFNPRFKRSSCIVCNTLTQEKWGWEEITYDMPFRKEKSFEIVFMVLKNKFQVAVNGRHVLLYAHRISPEQIDTVGIYGKVNIHSIGFRFSSASALPHTLGDLQSMETSALGLTQINRENIQKPGKLQLSLPFEARLNASMGPGRTVVIKGEVNTNARSFNVDLVAGKTRDIALHLNPRLNVKAFVRNSFLQDAWGEEERNITCFPFSSGMYFEMIIYCDVREFKVAINGVHSLEYKHRFKDLSSIDTLSVDGDIRLLDVRSW",glycan array binding signal (z-score),Gal(a1-6)Glc,-0.531
same,glycan array binding signal (z-score),Gal(b1-2)Gal,-0.521
same,glycan array binding signal (z-score),Gal(b1-3)Gal,-0.231
same,glycan array binding signal (z-score),Gal(b1-3)Gal(b1-4)GlcNAc,0.252
same,glycan array binding signal (z-score),Gal(b1-3)GalNAc,-0.248
same,glycan array binding signal (z-score),[1],0.954
same,glycan array binding signal (z-score),[2],2.62
same,glycan array binding signal (z-score),Gal(b1-3)GalNAc(b1-3)Gal,0.494
same,glycan array binding signal (z-score),[3],0.125
same,glycan array binding signal (z-score),[4],0.461
same,glycan array binding signal (z-score),[5],0.288
same,glycan array binding signal (z-score),Gal(b1-3)GlcNAc,-0.182
same,glycan array binding signal (z-score),[6],0.264
same,glycan array binding signal (z-score),[7],-0.17
same,glycan array binding signal (z-score),Gal(b1-3)GlcNAc(b1-2)Man,-0.065
same,glycan array binding signal (z-score),[8],-0.017
same,glycan array binding signal (z-score),[9],0.227
same,glycan array binding signal (z-score),[10],0.229
same,glycan array binding signal (z-score),[11],0.049
same,glycan array binding signal (z-score),[12],0.153
same,glycan array binding signal (z-score),[13],-0.166
same,glycan array binding signal (z-score),[14],-0.074
same,glycan array binding signal (z-score),[15],0.279
same,glycan array binding signal (z-score),[16],0.301
same,glycan array binding signal (z-score),[17],0.921
same,glycan array binding signal (z-score),[18],-0.082
same,glycan array binding signal (z-score),[19],0.099
same,glycan array binding signal (z-score),[20],0.064
same,glycan array binding signal (z-score),[21],-0.128
same,glycan array binding signal (z-score),[22],-0.189
same,glycan array binding signal (z-score),[23],-0.075
same,glycan array binding signal (z-score),[24],0.311
same,glycan array binding signal (z-score),Gal(b1-3)GlcNAc6S,0.615
same,glycan array binding signal (z-score),[25],-0.532
same,glycan array binding signal (z-score),[26],-0.508
same,glycan array binding signal (z-score),[27],-0.399
same,glycan array binding signal (z-score),[28],-0.534
